Read counts are not given, so values of variants with three or more changes are uncertain.
B1: OR4K15 (parent)
chain: GUUAACGGUCAUAGGCCAUGGAAACUAGGAGCACCAUUUCGCUGCCAGUGAAGAAAUGAACAAAGAAAAUCUGGGCCAGGCAGGCAUCAAAAGAAAUAGUCUUGCGCUCAACCAGAAAGUCUGUAAUCAUUUUAAGGGUA

Variants of: B1
Assay: self-cleavage, relative activity (ratio to wild type); higher = more cleavage; in vitro, sequencing; the parent is a self-cleaving ribozyme

Row | Variant | self-cleavage
1 | GUUAACGGUCAUAGGCCAUGGAAACUAGGAGCGCCAUUUCGCUGCCAGUGAAGAAAUGAACAAAGAAAAUCUGGGCCAGGCAGGCAUCAAAAGUAAUAGUCUUGCGCUCAACCAGAAAGUCUGUAAUCGUUUUAAGGGUA [A33G A94U A129G] | 0.5
2 | GUUAACGGUCAUAGGCCGUGGAAACUAGGAGCACCAUUUCGCUGCCAGUGAAAAAAUGAACAAAGAAAAUCUGGGCCAGGCAGGCAUCAAAAGGAAUAGUCUUGCGCUCAACCAGAAAGUCUGUAAUCAUUUUAAGGGUA [A18G G53A A94G] | 1.67
3 | GUUAACGGUCAUAGGCCAUGGAAACCAGGAGCACCAUUUCGCUGCCAGUGAGGGGAUGUACUAAGAAAAUCUGGGCCAGGCAGGCAUCAAAAGAAAUAGUCUUGCGCUCAACCAGGAAGUCCGUAAUCAUUUUAAGGGUA [U26C A52G A54G A55G A59U A62U A116G U122C] | 0.05
4 | GUUAACGGUCAUAGGCCAUGGAAACUAGGAGCACCAUUUCGCUGCCAGUGAAGAAAUGAACAAAGAAGAUCAGGGCCAGGCAGGCAUCAAAAGAAAUAGACUUGCGCUCAACCAGAAAGUCUGUAAUCAUUUUAAGGGUA [A68G U72A U100A] | 0.05
5 | GUUAACGGUCAUGGGCCAUGGAAACCAGGAGCACCAUUUCGCUGCCAGUGAAGAAAUGAACAAAGAAAAUCUGGGCCAGGCAGGCACCAAAAGGAAUAGUCUUGCGCUCAACCAGAAAGUCUGUAAACAUUUUAAGGGUA [A13G U26C U87C A94G U127A] | 1.7
6 | GUUAACGGUCAUAGGCCAUGGAAACUAGGAGCACCAUUUCGCUGCCAGUGAAGAAAUGAACGAAGAGAAUCUGGGUCAGGCAGGCAUCAAAAGAAAUAGUCUUGCGCUCAACCAGAAAGUCUGUAAUCAUUUUAAGGGUA [A62G A67G C76U] | 0.18
7 | GUUAACGGUCAUAGGCCAUGGAAACUAGGAGCACCAUUUCGCUGCCAGUGAAGAAAUGAACGAAGAAAGUCUGGGCCAGGCAGGCAUCAAAAGAAAAAGUCUUGCGCUCAACCAGAAAGUCUGUAAUCAUUUUAAGGGUA [A62G A69G U97A] | 1.3
8 | GUUAACGGUCAUAGGCCAUGGAAACUAGGAGCACCACUCCGCUGCCAGUGAAGAAAUGAACAAAGAAAAUCUGGGCCAGGCAGGCAUCAAAAGAAAUAGUCUUGCGCUCAACCAGAAACUCUGUAAUCAUUUUAAGGGUA [U37C U39C G119C] | 1.32
9 | GUUAACGGACAUAGGCCUUGGAAACUAGGAGCACCAUUUCGCUGCCAGUGAAGAAGUGAACAAAGAAAAUCUGGGCCAGGCAGGCAUCAAAAGAAAUAGUCUUGCGCUCAACCAGAAAGUCUGUAAUCAUUUUAAGGGUA [U9A A18U A56G] | 0.32
10 | GUUAACGGUCAUAGGCCAUGGAAACUAGGAGCACCAUUUCGCUGCCAGUGAAGAAGUGAACAAAGAAAAUCUGGGCCAGGCAGGCAUCAACAGAAAUAGUCUUGCGCUCAACCAGAAAGUCUGUAAUCAUUUUAGGGGUA [A56G A91C A135G] | 1.52
11 | GUUAACGGUCAUAGGCCAUGGGAACUAGGAGCACCAUUUCGCUGCCAGUGAAGAAAUGAACAAAGAAAAUCUGGGCCAGGCAGGCGUCAAAAGAAGUAGUCUUGCGCUCAACCAGAAAGUCUGUAAUCAUUUUAAGGGUA [A22G A86G A96G] | 0.87
12 | GUUAACGGUCGUGGGCCAUGGAAGCUAGGAGCUCCAUUUCGCUGCCGGUGAAGAAAUGAACAAAGAAAAUCUGGGCCAGGCAGGCAUCAAAAGAAAUAGUCUUGCGCUCGACCAGAAAGUCUGUAAUCAUUUUAAAGGUA [A11G A13G A24G A33U A47G A110G G136A] | 0.54
13 | GUUAGCGGUCAUAGGCCAUGGAAACUGGGAGCACCCUUUCGCUGCCAGUGAAGAAAUGAACAAAGAAAAUCUGGGCCAGGCAGGCAUCAAAAGAAAUAGUCUUGCGCUCAACCAGAAAGUCUGUAAUCAUUUUAAGGGUA [A5G A27G A36C] | 0.52
14 | GUUAACGGUCUUAGGCCACGGGAACUAGGGGCACCAUUUCGCUGCCAGUGAAGAAAUGAACAAAGAAAAUCUGGGCCAGGCAGGCAUCAAAAGAAAUAGUCUUGCGCUCAACCAGAAAGUCUGUAAUCAUUUUAAGGGUA [A11U U19C A22G A30G] | 1.53
15 | GUUAACGGUCAUAGGCCUUGGACACUAGGAGCACCAUUUCGCUGCCAGUGAAGAAAUGAACAAAGAAAAUCUGGGCCAGGCAGGCAUCAAAAGAAAUAGUCUUGCGCUCAGCCAGAAAGUCUGUAAUCAUUUUAAGGGUA [A18U A23C A111G] | 0.09
16 | GUUAACGGUCAUAGGCCAUGGAAACUAGGAGCACCAUUUCGCUGCCAGUGAAGAAAUGAACAAAGAGAAUCUGGGCCAGGCAGGCAUCAAAAGAAAUAGUCUUGCGCUCAACCAGAAGGUCUGUAAUCAUCUUAAGGGUA [A67G A118G U131C] | 0.78
17 | GUUAACGGUCAUAGGCCAUGGAGACUAGGAGCACCAUUUCGCUGCCAGUGAAGAAAUGAACAAAGAAAAUCUGGGCCAGGCAGGCAUCAAAAGAAAUAGUCUUGCGCCCAACCAGAAAGUCGGUAAUCAUUUUAAGGGUA [A23G U108C U122G] | 0.02
18 | GUUAACGGUCGUAGGCCAUGGAGACUAGGAGCACCGUUUCGCUGCCAGUGAAGAAAUGAACAAGGAAAAUCUGGGCCUGGCAGGCAUCAAAAGAAAUAGUCUUGCGCUCAACCAGAAAGUCUGUAAUCAUUUUAAGGGUA [A11G A23G A36G A64G A78U] | 0.2
19 | GUUAACGGUCAUAGGCCAUGGGAACUAGGAGCACCAUUCCGCUGCCAGUGAAGAAAUGAACAAAGAAAACCUGGGCCAGGCAGGCAUCAAAAGAAAUAGUCUUGCGCUCAACCAGAAAGUCUGUGAUCAUUUUAAGGGUA [A22G U39C U70C A125G] | 0.42
20 | GUUAACGGUCAUAGGCCAUGGAAACUAGGAGCACCAUUUCGCUGCCAGCGAAGAAAUGAACAGAGAAAAUCCGGGCCAGGCAGGCAUCAAAAGAGAUAGCCUUGCGCUCAACCAGAAAGUCUGUAAUCAUUUUAAGGGUA [U49C A63G U72C A95G U100C] | 0.43
21 | GUUAACGGUCAUAGGCCAUGGAAACUAGGAGCACCACUUCGCUGCCAGUGAUGAAAUGAACAAAGAAAAUCUGGGCCAGGCAGGCAUCAAAAGAAAUAGUCUUGCGCUCAACCAGAAAGUCUGCAAUCAUUUUAAGGGUA [U37C A52U U124C] | 0.71

Source: the RNAGym collection of RNA variant scans (doi:10.7554/elife.90254)
